Measurements published in PubChem BioAssay AID938 (National Center for Advancing Translational Sciences (NCATS), 2007).
About 1,800 (2.5%) of roughly 73,000 compounds were called active. Inconclusive means that the source gave no clear call. Such entries were picked first, then a sample of the others. Calls follow the shape of the dose curve; as a rule, active = well fitted activation curve with a large enough effect; inconclusive = small, poorly fitted or top-dose-only effect; inactive = no such curve, though single readings can be large or run the other way. Potencies of inconclusive entries are left out as doubtful fits.
Potency is read from the fitted curve at half-maximal effect; tags tell the direction and shape of the fitted curve.

Test: qHTS Assay for Agonists of the Thyroid Stimulating Hormone Receptor: Activators of Intracellular cAMP Concentrations in Parental HEK 293; also: nearly all actives have a fitted effect of over 55% in size; as to activation: % of control where 0% means no effect
Conditions: parental HEK293 CNG cAMP sensor, membrane potential fluorescence; activation: at 57.1 µM (top of the series) unless noted
Outline: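 Parental HEK 293 cells stably expressing a cAMP-gated CNG channel were loaded with membrane potential dye containing 100 uM RO 20-1724 for 60 min. Compound added for 30 min; depolarization read as fluorescence intensity at 590 nm.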
For COc1cc(-c2nc(S(=O)(=O)c3ccc(C)cc3)c(N(C)C)o2)cc(OC)c1OC, the Potency was “inactive”. With CCCSc1nc2c(cnn2-c2ccc(C)cc2)c(=O)[nH]1 the Potency was “inactive”. With CCN1C(=O)[C@H]2[C@H]3[C@H](O)[C@H](O)C/C(=N/NC(=O)OCc4ccccc4)[C@H]3CC[C@@H]2C1=O the activation was inactive: 3.05% [at 11.4 µM]. For COC(=O)C1=C(C)N(C)C(C)=C(C(=O)OC)C1c1ccc(C(=O)OC)cc1, the Potency was inconclusive [activator, full curve]. With COc1ccc(Cc2nnc(SCC(=O)Nc3ncc(C)s3)o2)cc1 the Potency was inconclusive [activator, full curve, poor fit]. For Cc1cccc(CCNC(=O)CCc2nc(-c3ccccc3F)no2)c1, the Potency was inconclusive [activator, partial curve]. In the case of COC(=O)c1oc2ccc(Br)cc2c1NC(=O)CCN1CCOCC1, the Potency was inconclusive [activator, full curve, poor fit]. With CCn1nnnc1NCc1cccn1C the Potency was active: 25.1 µM. For CCOC(=O)C1CCCN(C(=O)c2cnn3c(C(F)F)cc(-c4ccc(C)cc4)nc23)C1 (configuration not stated), the Potency was active: 7.94 µM. With COc1ccc(Oc2nc(C)nc3c2oc2ccccc23)cc1 the Potency was active: 25.1 µM. For COC(=O)c1sc(N2C(=O)C(O)=C(C(=O)c3ccc(C)o3)C2c2ccc(F)cc2)nc1C (configuration not stated), the activation was inactive: -6.32% [at 11.4 µM]. For Cc1ccccc1-c1nnc(-c2ccc(Br)cc2)o1, the Potency was active: 3.16 µM. In the case of CSc1nnc(-c2ccccc2)o1, the Potency was “inactive”. For N[C@@H](Cc1cc(CP(=O)(O)O)cc(-c2ccccc2Cl)c1)C(=O)O, the Potency was “inactive”. In the case of FC(F)(F)c1ccccc1-c1cncnc1NCc1cccs1, the Potency was inconclusive [activator, full curve, poor fit]. For COC(=O)c1cccc(-n2nnnc2SCC(=O)Nc2nc3c(s2)CCCC3)c1, the Potency was inconclusive [activator, single point]. With COc1ccc(N/C(N)=N/c2nc(CSc3ccc(C)cc3)cc(=O)[nH]2)cc1 the Potency was “inactive”. In the case of CO/N=C(/C)CCC(=O)OC[C@@H]1O[C@H](c2ccccc2)C=C[C@@H]1Oc1ccc(OC)cc1, the Potency was inconclusive [activator, single point]. For Cc1ccc(C)c(-c2nc3ccc(N)cc3[nH]2)c1, the Potency was “inactive”. With COc1cc2ccccc2cc1C(=O)Nc1cccnc1 the Potency was inconclusive [activator, single point]. With CCOC(=O)NCCc1c(C)nc2c(c(C)nn2C(C)(C)C)c1C the Potency was “inactive”. With CN(C)Cc1ccccc1-c1cc(NCc2cccs2)ncn1 the Potency was inconclusive [activator, single point]. With CCCC/C=C/C(NC(=O)c1ccc(C(=O)OC)cc1)c1ccccc1 (configuration not stated) the Potency was active: 25.1 µM. In the case of CCOC(=O)C1CCN(C(=O)COc2cc(C)c(Br)c(C)c2)CC1, the Potency was inconclusive [activator, partial curve, poor fit]. With COc1cccc(-c2cc(NCc3ccccc3)ncn2)c1 the Potency was inconclusive [activator, single point]. For Cc1cc(NC(=O)CSc2nc(CCC3CCCC3)nc3ccccc23)no1, the Potency was inconclusive [activator, full curve, poor fit]. For Cc1ccc(C(=O)CSc2nc3cc(S(=O)(=O)N4CCOCC4)ccc3o2)cc1, the Potency was inconclusive [activator, single point]. With CCC1CCCCN1C(=O)CSc1nnc(-c2ccc(Cl)s2)o1 (configuration not stated) the Potency was inconclusive [activator, partial curve]. With CCn1cnc2c1c(=O)n(Cc1nnc3n1-c1ccccc1SC3)c(=O)n2Cc1ccccc1 the Potency was inconclusive [activator, single point]. For COc1cc(C(=O)Nc2nnc(C)s2)cc(OC)c1OC, the Potency was “inactive”. In the case of COc1ccc(C(=O)N2CCC3(CC2)CN(CC(C)C)C3)cc1, the Potency was “inactive”. With CC(C)OC(=O)CSc1nc2ncc(Cl)cc2[nH]1 the Potency was inconclusive [activator, partial curve]. For O=C(c1cc(-n2cnnc2)ccc1Cl)N1CCN(c2nc(-c3ccccc3)cs2)CC1, the Potency was inconclusive [activator, single point]. With Cc1cccn2cc(CCNC(=O)c3ccc(Br)o3)nc12 the Potency was active: 31.6 µM. In the case of O=C(CCc1ccc(S(=O)(=O)N2CCOCC2)cc1)Nc1cc(Cl)ccc1N1CCOCC1, the Potency was inconclusive [activator, single point]. For COCCn1nnnc1C(c1ccc(OC)cc1)N1CCN(c2ccccc2F)CC1 (configuration not stated), the Potency was inconclusive [activator, single point]. For COc1cccc(C2=NC(C)(C)NC(c3ccccc3O)C2)c1 (configuration not stated), the Potency was “inactive”. With COc1ccc(CCN2C(=O)c3[nH]nc(-c4ccccc4O)c3C2c2ccccc2)cc1OC (configuration not stated) the Potency was inconclusive [activator, single point]. In the case of O=C(CCSc1nnc2scc(-c3ccccc3)n12)NCc1ccc2c(c1)OCO2, the Potency was inconclusive [activator, partial curve]. In the case of CC(C)CCNC(=O)C(C)N(Cc1ccc(F)cc1)C(=O)c1ccc(CN2CCCCC2)o1 (configuration not stated), the Potency was inconclusive [activator, partial curve]. In the case of Cc1ccc2c(c1)cc(CN(Cc1ccco1)S(=O)(=O)c1ccccc1)c1nnnn12, the Potency was “inactive”. For COc1ccc(NC(=O)c2cc3ccccc3o2)cc1, the Potency was inconclusive [activator, single point]. In the case of CC(=O)CCCCn1c(=O)c2c(ncn2C)n(C)c1=O, the Potency was inconclusive [activator, single point]. In the case of Cc1ccc2cc(CN(Cc3ccc4c(c3)OCO4)Cc3nnnn3Cc3ccco3)c(=O)[nH]c2c1C, the Potency was inconclusive [activator, single point]. With Cc1ccc(-n2c(SCC(=O)NCC3CCCO3)nc3n[nH]c(C)c3c2=N)cc1Cl (configuration not stated) the Potency was “inactive”. In the case of Cc1ccc(N(C(=O)Cn2nnc(-c3ccc(C)o3)n2)C(C(=O)NC2CCCC2)c2ccco2)cc1 (configuration not stated), the Potency was “inactive”. In the case of COc1ccc2nc(-c3ccccc3)[nH]c2c1, the Potency was inconclusive [activator, single point]. With c1ccc(CN2C3=NCCCN3c3ccccc32)cc1 the Potency was inconclusive [activator, full curve, poor fit]. For Cc1ccc(-n2nnnc2SCC(=O)Nc2c(C)n(C)n(-c3ccccc3)c2=O)cc1, the Potency was inconclusive [activator, single point]. In the case of CCC1CO1 (configuration not stated), the Potency was “inactive”. In the case of c1ccc(Cc2nnc3sc(-c4cccnc4)nn23)cc1, the Potency was inconclusive [activator, full curve, poor fit]. With Cc1nonc1NC(=O)CSc1nc2cc(Cl)ccc2c2c1CCCC2 the Potency was inconclusive [activator, full curve, poor fit]. With COc1cccc(C2CC(c3ccc(C)cc3)Nc3nc(N)nn32)c1 (configuration not stated) the Potency was inconclusive [activator, full curve]. For Cc1cc(NC(=O)c2cc(-c3cccs3)nc3ccccc23)no1, the Potency was active: 15.8 µM. With CC(=O)N1CCc2cc(S(=O)(=O)Nc3ccccc3N3CCN(C)CC3)ccc21 the Potency was inconclusive [activator, single point]. In the case of Cc1ccc(S(=O)(=O)N2CCOCC2)cc1C(=O)Nc1nc(-c2cccnc2)cs1, the Potency was “inactive”. For CC(=O)N1CCc2cc(C(=O)CN3CCN(c4cccc(Cl)c4)CC3)ccc21, the Potency was inconclusive [activator, single point]. With Oc1ccccc1-c1nnc(-c2ccc(C(F)(F)F)cc2)o1 the Potency was “inactive”. With COC(=O)Cn1c(CN2CCc3ccccc3C2)nc2c1c(=O)n(C)c(=O)n2C the Potency was inconclusive [activator, single point]. For COC(=O)C1=NOC2(C=C(Br)C(OC)=C(Br)C2=O)C1 (configuration not stated), the activation was inactive: 3.77% [at 11.4 µM]. With CCN1CCCC1Cn1c(-c2ccccc2)nc2c(NC3CCCCC3)nc(C)nc21 (configuration not stated) the Potency was active: 20 µM. In the case of O=[N+]([O-])c1ccc(Nc2nc3ccccc3s2)cc1, the activation was inactive: -4.99% [at 11.4 µM]. In the case of COC(=O)c1cc(Br)c(=O)n(CCC2=CCCCC2)c1, the Potency was inconclusive [activator, single point]. In the case of Cn1c(C(=O)NCc2cccnc2)cc2sccc21, the Potency was “inactive”. For CCOC(=O)c1cc(-c2ccncc2)nc2c1c(C)nn2-c1ccccn1, the Potency was inconclusive [activator, partial curve]. In the case of CCc1cccc2c(C#N)cn(CC(=O)NCc3ccco3)c12, the Potency was inconclusive [activator, partial curve]. In the case of Cc1ccc(SC/C(O)=C(\C#N)c2nc3ccccc3n2C)cc1, the Potency was inconclusive [activator, partial curve]. For Cc1ccc(C(=O)CC2(O)C(=O)N(CN3CCOCC3)c3ccccc32)cc1 (configuration not stated), the Potency was inconclusive [activator, single point]. For O=c1cnnc(SCCc2ccccc2)[nH]1, the Potency was active: 31.6 µM. For CN(Cc1ccccc1)Cc1nc2c(c(=O)n(C)c(=O)n2C)n1Cc1ccc(F)cc1, the Potency was inconclusive [activator, partial curve]. With Cc1cnc(CNc2nc(-c3ccccc3Cl)nc3ccccc23)cn1 the Potency was inconclusive [activator, single point]. In the case of CC(NC(=O)c1cccs1)C(c1cccs1)N1CCN(Cc2ccccc2)CC1 (configuration not stated), the Potency was inconclusive [activator, single point].
